Test results reported in PubChem BioAssay (NCI).
Values joined by “and” are separate entries in the source; they are usually repeats but may differ in a detail not shown here. Equal entries are not always repeated.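 Assay format: 96-well plates, 48-hour exposure. At the GI50, growth is halved. At the TGI there is no net growth.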

test system: NCI-H322M lung; experiment: NCI anticancer screen, dose series, 48 h

| SMILES | TGI | GI50 |
| --- | --- | --- |
| Cc1cc(=O)n(-c2cc3cccccc-3n2)[nH]1 | 67.3 µM |  |
| CCNC(=O)OCc1c(COC(=O)NCC)c(-c2ccc(Cl)c(Cl)c2)n2c1CCC2 | > 100 µM |  |
| CC(=O)OCC(=O)OC[C@H](OCc1ccccc1)[C@@H]1[C@H](OC(C)=O)C(=O)N1Cc1ccccc1 | > 100 µM |  |
| O=C1C2C3CC(C4C5C=CC(C5)C34)C2C2C3CC(C12)C1C2C=CC(C2)C31 (centres undefined) | > 100 µM |  |
| N/N=C(/Cc1nc2ccc(C(=O)c3ccccc3)cc2[nH]c1=O)C(=O)Nc1ccc([N+](=O)[O-])cc1[N+](=O)[O-] | > 100 µM |  |
| CCCCCCCC/C=C/CCCCCCCC1=NC(C)(C)CN1CCO | 4.89 µM | 1.99 µM |
| NC1=NN(c2ccccc2)C(=O)C1C(=O)C(=O)Nc1ccc(Cl)c(Cl)c1 (centres undefined) | > 100 µM |  |
| O=C1CC(CC(=O)c2ccc(Br)cc2)C(=O)/C1=C(/O)c1ccc(Br)cc1 (centres undefined) | > 100 µM |  |
| COC(=O)C1C(=O)O[C@@H](c2cc(OC)c(OC)cc2OC)C1C(=O)OC (mixture of isomers) | > 100 µM |  |
| CC(C)CCCCCCCCCCCCC(=O)NCC(=O)NC1C(O)C(O)C(Nc2ncnc3nc[nH]c23)OC1C(O)CO (centres undefined) | 0.0347 µM and 0.0943 µM and 0.286 µM |  |
| COc1ccc(COC(=O)NCC(=O)NC(C)C(=O)NC(Cc2ccccc2)C(=O)OCc2ccccc2)cc1 (centres undefined) | 83.1 µM and > 100 µM | 27.5 µM and 69.8 µM |
| COc1ccc(/C=C2/SC(Nc3nc(-c4nc(NC5=NC(=O)/C(=C\c6ccc(OC)cc6)S5)sc4C)c(C)s3)=NC2=O)cc1 | 4.93 µM | 1.11 µM |
| O=[N+]([O-])c1ccc(-n2nc3ccc4c(no[n+]4[O-])c3n2)cc1 | 52.9 µM |  |
| CN(C)N1C(=O)S/C(=C\c2ccc([N+](=O)[O-])cc2)C1=O | > 100 µM |  |
| NS(=O)(=O)c1cc(C(=O)O)c(O)c2ccccc12 | > 100 µM |  |
| CC[C@@H](C)/C=C(C)/C=C/C(=O)c1c(O)c(-c2ccc(O)cc2)cn(O)c1=O | 14 µM | 0.33 µM |
| CN1CCN(C(=O)COc2ccc(/C=C3\CC4C5CC=C6CC(Cl)CCC6(C)C5CCC4(C)C3=O)cc2)CC1 (centres undefined) | > 100 µM | > 100 µM |

| SMILES | TGI | GI50 |
| --- | --- | --- |
| N#Cc1cnc(Nc2cc(NC[C@H]3CNCCO3)c(C(F)(F)F)cn2)cn1 | 62.3 µM | 8.43 µM |
| Cc1cc(C)c(-c2c(N)cc(Br)cc2Br)c(N)c1 | 28.3 µM | 11.7 µM |
| CCCCCCCCCOCC(COP(=O)([O-])OCC[N+](C)(C)C)OC (centres undefined) | > 100 µM |  |
| O=Cc1cc(C(=O)OCc2ccccc2)n(S(=O)(=O)c2ccccc2)c1 | > 100 µM |  |
| CC(=O)O[C@H]1C(=O)[C@@]2(C)[C@H]([C@H](OC(=O)c3ccccc3)[C@]3(O)C[C@H](OC(=O)[C@H](O)[C@@H](NC(=O)c4ccco4)c4ccccc4)C(C)=C1C3(C)C)[C@]1(OC(C)=O)CO[C@@H]1C[C@@H]2O | > 12.5 µM |  |
| O=C(c1ccccc1)N1CCC(CC2(c3cc4ccccc4[nH]3)OCCO2)CC1 | > 100 µM |  |
| Clc1ccccc1-c1nnc2c(Cc3ccccc3)nc3ccccc3n12 | > 100 µM | > 73.4 µM |
| O=C1/C(=C/c2ccc(Cl)cc2)CNC/C1=C\c1ccc(Cl)cc1 |  | 2.3 µM and 4.79 µM |
| COc1ccc2c(c1)/C(=C\c1c(Cl)[nH]c3ccccc13)C(=O)N2 | 19.2 µM |  |
| COc1ccc(S(=O)(=O)N(CC(=O)O)c2ccccc2)cc1 | > 100 µM |  |
| O=C(c1ccc(Cl)cc1)c1ccc(OCCCOc2ccc(C(=O)c3ccc(Cl)cc3)cc2Cl)c(Cl)c1 | > 100 µM |  |
| CC(=O)[CH-]C(=O)c1ccccc1.CC(=O)[CH-]C(=O)c1ccccc1.CC(=O)[CH-]C(=O)c1ccccc1.[Nd+3].[OH3+] | > 100 µM | 37.5 µM |
| C/C(=N\NC(=O)c1ccccc1O)c1cccc(/C(C)=N/NC(=O)c2ccccc2O)n1.O=S(=O)([O-])[O-].[Fe+2] | > 100 µM | > 100 µM |
| COC1CC(OC2C(C)OC(OC3C(C)OC(OC4C(C)OC(O[C@H]5CC[C@@]6(C)C(=CC[C@]7(O)[C@@H]6C[C@@H](OC(C)=O)[C@@]6(C)[C@]7(O)CC[C@@]6(O)C(C)=O)C5)CC4OC)CC3OC)CC2OC)OC(C)C1O (some centres undefined) | > 25 µM |  |
| O=C(c1ccc(Cl)cc1)C(O)c1ccc(Cl)cc1 (centres undefined) | > 100 µM |  |
| CCOC(=O)c1c(NC(=S)Nc2ccc(Cl)cc2)sc2c1CCN(C)C2 | > 100 µM |  |
| C=CCOC(=O)C1=C(C)NC2=N[C@H](CCCCCCCCC)C[C@@H]3CCC1N23 (some centres undefined) | > 100 µM |  |
